Measurements: PubChem BioAssay AID504832 (National Center for Advancing Translational Sciences (NCATS), 2011)
Hit rate of the full screen: of about 310,000 compounds, about 18,000 (5.8%) were called active. This list was built around the results that the source calls inconclusive (neither active nor inactive); the mix of calls is not that of the screen. Calls come from the whole dose curve; as a rule, active = well fitted inhibition curve with a large enough effect; inconclusive = small, poorly fitted or top-dose-only effect, or another doubt; inactive = no such curve, though single readings can be large or run the other way. Potencies of inconclusive entries are left out as doubtful fits.
Potency is the fitted concentration of half-maximal effect; tags give direction and shape of the fitted curve.

Test: Primary qHTS for delayed death inhibitors of the malarial parasite plastid, 48 hour incubation
Conditions: P. falciparum luciferase growth in erythrocytes; series mostly up to 28.7 µM
In short: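 Erythrocytes infected with P. falciparum carrying an integrated firefly luciferase reporter (2% hematocrit, 0.1% parasitemia final) were exposed to compounds in RPMI 1640 with 0.5% Albumax at 37 C, 5% CO2. Growth inhibition was scored as reduced luminescence.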
For `Cc1cc(N/N=C/c2ccc(O)cc2O)nc(-n2nc(C)cc2C)n1`, the Potency was active: 1.85 µM. With `Cc1cc(NC(=O)COC(=O)c2ccc(S(=O)(=O)N3CCCc4ccccc43)cc2)no1` the Potency was inconclusive [inhibitor, full curve, poor fit]. With `Cc1cccc(Cc2nnc(NC(=O)c3cccc(S(=O)(=O)N4CCOCC4)c3)s2)c1` the Potency was inconclusive [inhibitor, partial curve]. For `Cc1nc2cc(S(=O)(=O)N3CCC(C(=O)O)CC3)ccc2n1C1CCCC1`, the Potency was inconclusive [inhibitor, single point]. In the case of `NC(=O)c1c(NC(=O)c2ccccc2)sc2c1CCCC2`, the Potency is reported as “inactive”. In the case of `c1cc2c(cc1C1CCCCC1)c1c3n2CCN=C3CCC1`, the Potency is reported as inconclusive [inhibitor, single point]. For `CC(C)Cc1nnc(NC(=O)CN2C(=O)NC3(CC(C)CC(C)(C)C3)C2=O)s1` (stereo not given), the Potency was inconclusive [inhibitor, single point]. For `Cc1ccc(-c2noc(CCC(=O)NCCCN3CCN(c4ccc(F)cc4)CC3)n2)cc1`, the Potency was inconclusive [inhibitor, single point]. In the case of `N#CC1=C(N)C(C#N)(C#N)C(c2cccnc2)C2COCC=C12` (stereo not given), the Potency is reported as “inactive”. With `COc1cccc(NC(=O)CCNS(=O)(=O)c2cccc3nsnc23)c1` the Potency was inconclusive [inhibitor, partial curve, poor fit]. With `COc1ccc(S(=O)(=O)N2CCCC(C(=O)Nc3cccnc3)C2)cc1Cl` (stereo not given) the Potency was inconclusive [inhibitor, single point]. For `CC1CCC(NC(=O)c2cc3c(s2)CS(=O)(=O)C3)CC1` (stereo not given), the Potency was “inactive”. For `N#CC1=C(SCc2ccccc2)NC(=O)CC1c1cccc(O)c1` (stereo not given), the Potency was inconclusive [inhibitor, single point]. In the case of `CCCCN=C1NC(=O)C(CC(=O)NCCc2ccc(OC)cc2)S1` (stereo not given), the Potency is reported as inconclusive [inhibitor, partial curve]. With `O=C(NCc1cccnc1)NC1(C(F)(F)F)Oc2ccc(Cl)cc2O1` (stereo not given) the Potency was inconclusive [inhibitor, single point]. In the case of `O=C(O)CCC1(c2ccccc2)NC(=O)NC1=O` (stereo not given), the Potency is reported as “inactive”. In the case of `O=C(c1cc2cc(Br)ccc2s1)N1CCOCC1`, the Potency is reported as inconclusive [inhibitor, single point]. In the case of `C=CCn1c(N)c(C(=O)OCC)sc1=S`, the Potency is reported as “inactive”. In the case of `CCNc1nc(NC(C)(C)C)nc(N2CCCC2)n1`, the Potency is reported as active: 1.47 µM. For `Cc1c(NS(=O)(=O)c2ccc(C(=O)NCc3ccc(F)cc3)cc2)c(=O)n(-c2ccccc2)n1C`, the Potency was inconclusive [inhibitor, single point]. For `CCOc1cc(NC(=O)c2ccco2)c(OCC)cc1NC(=O)COc1ccccc1`, the Potency was inconclusive [inhibitor, full curve]. In the case of `COC(=O)[C@@H]1C[C@@]2(O)[C@@H](O)[C@@H](O)[C@@H](O)C[C@H]2N1Cc1cc(OC)cc(OC)c1`, the Potency is reported as “inactive”. With `O=[N+]([O-])c1cccc(-c2nnc(-c3ccccc3)o2)c1` the Potency was “inactive”. For `O=C(N/N=C\c1cc(Cl)ccc1O)c1ccc(S(=O)(=O)N2CCCCC2)cc1`, the Potency was active: 2.62 µM. In the case of `COc1ccccc1NS(=O)(=O)c1cc(NC(=O)C2CCCC2)ccc1N1CCOCC1`, the Potency is reported as inconclusive [inhibitor, partial curve, poor fit]. With `COc1cc(C(=O)OCc2cc3ccccc3[nH]c2=O)cc(OC)c1OC` the Potency was “inactive”. For `NC(=O)C(C(=O)/C=C/c1ccc(Cl)cc1)=C1SCCS1`, the Potency was inconclusive [inhibitor, single point]. With `CCOC(=O)COc1cccc2c(=O)n(CC(=O)N3CCCCC3)ccc12` the Potency was “inactive”. In the case of `COc1ccc(C(C)C)cc1S(=O)(=O)Nc1ccncc1`, the Potency is reported as inconclusive [inhibitor, partial curve, poor fit]. For `O=C(CCCCC(=O)Nc1ccccc1)Nc1ccccc1`, the Potency was “inactive”. For `COc1ccc(NC(=O)CN2C(=O)c3ccccc3Sc3ccc(C(=O)N4CCOCC4)cc32)c(OC)c1`, the Potency was active: 10.4 µM. In the case of `O=C(Nc1ccc(Cl)c(Cl)c1)Nc1nnc(CSc2ccccc2)s1`, the Potency is reported as active: 4.65 µM. With `O=C(C1CC1)N1CCc2cc(Br)cc(S(=O)(=O)N3CCCCCC3)c21` the Potency was active: 1.65 µM. With `c1cncc(-c2nc3c(ccc4ccccc43)[nH]2)c1` the Potency was inconclusive [inhibitor, single point]. For `COC(=O)c1ccc(C23CC4(C2)[C@H](CN(Cc2cccnc2)[C@@H]4c2ccccc2)C3c2ccccc2)cc1` (stereo not given in full), the Potency was active: 7.38 µM. With `O=C(NCc1ccncc1)C(=O)NCC1OCCCN1S(=O)(=O)c1ccc(F)cc1` (stereo not given) the Potency was “inactive”. In the case of `Cc1nn(Cc2ccccc2Cl)c(Cl)c1C(=O)O`, the Potency is reported as “inactive”. For `Cc1ccc2c(c1C)NC(C(=O)O)C1CC=CC21` (stereo not given), the Potency was inconclusive [inhibitor, single point]. For `COc1ccc(-c2cc(C(=O)c3c(N)n(C)c(=O)n(C)c3=O)c3ccccc3n2)cc1OC`, the Potency was “inactive”. With `Cc1ccc(S(=O)(=O)Oc2cccc(N3C(=O)C4CC=CCC4C3=O)c2)cc1` (stereo not given) the Potency was inconclusive [inhibitor, full curve, poor fit]. For `O=C(N/N=C/c1ccccn1)c1cccc(NC(=O)c2ccc(Cl)cc2)c1`, the Potency was inconclusive [inhibitor, single point]. In the case of `Cc1ccc(C(=O)N2N=C(c3ccccc3)CC2(O)C(F)(F)F)o1` (stereo not given), the Potency is reported as inconclusive [inhibitor, partial curve, poor fit]. For `Nn1c(SCC(=O)Nc2cccc(C(F)(F)F)c2)nncc1=O`, the Potency was inconclusive [inhibitor, single point]. In the case of `CCCc1ncc(C(O)(c2ccccc2)c2ccc(C)cc2)n1C` (stereo not given), the Potency is reported as inconclusive [inhibitor, partial curve, poor fit]. For `CCOC(=O)C1(CCOc2ccccc2)CCN(Cc2ccc(OCCO)cc2)CC1`, the Potency was inconclusive [inhibitor, partial curve, poor fit].
